Here are results for 31 molecules from publication PMC9911399, “Two distinct binding modes provide the RNA-binding protein RbFox with extraordinary sequence specificity”.

To fix the notation:
T1: RBFOX1 RRM (Homo sapiens, UniProt Q9NWB1 109-208)
T1 sequence: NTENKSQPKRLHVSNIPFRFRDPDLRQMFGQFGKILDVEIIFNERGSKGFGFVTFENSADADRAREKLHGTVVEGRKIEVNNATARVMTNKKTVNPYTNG

B1: CAACCAG (DNA:RNA)
RNA: GGGAGACCGGAAUUCAGAUUGUCCCAACCAGUUAAAUCCCGUCGUAGCCACCA
DNA 1: CAATCTGAATTCCGGTCTCCC
DNA 2: TGGTGGCTACGACGGGATT
B2: ACCAUUA (DNA:RNA)
RNA: GGGAGACCGGAAUUCAGAUUGUCCACCAUUAUUAAAUCCCGUCGUAGCCACCA
DNA 1: CAATCTGAATTCCGGTCTCCC
DNA 2: TGGTGGCTACGACGGGATT
B3: CUUCAAA (DNA:RNA)
RNA: B1 RNA with A26U, A27U, C29A, G31A
DNA 1: CAATCTGAATTCCGGTCTCCC
DNA 2: TGGTGGCTACGACGGGATT
B4: GACCGGC (DNA:RNA)
RNA: B1 RNA with C25G, A27C, C29G, A30G, G31C
DNA 1: CAATCTGAATTCCGGTCTCCC
DNA 2: TGGTGGCTACGACGGGATT
B5: CUAUUAC (DNA:RNA)
RNA: B1 RNA with A26U, C28U, C29U, G31C
DNA 1: CAATCTGAATTCCGGTCTCCC
DNA 2: TGGTGGCTACGACGGGATT
B6: CGCAAAU (DNA:RNA)
RNA: B2 RNA with A25C, C26G, U29A, U30A, A31U
DNA 1: CAATCTGAATTCCGGTCTCCC
DNA 2: TGGTGGCTACGACGGGATT
B7: AAAAGAG (DNA:RNA)
RNA: B1 RNA with C25A, C28A, C29G
DNA 1: CAATCTGAATTCCGGTCTCCC
DNA 2: TGGTGGCTACGACGGGATT
B8: GAUAUAU (DNA:RNA)
RNA: B2 RNA with A25G, C26A, C27U, U30A, A31U
DNA 1: CAATCTGAATTCCGGTCTCCC
DNA 2: TGGTGGCTACGACGGGATT
B9: AUAUUCG (DNA:RNA)
RNA: B2 RNA with C26U, C27A, A28U, U30C, A31G
DNA 1: CAATCTGAATTCCGGTCTCCC
DNA 2: TGGTGGCTACGACGGGATT
B10: CAGGAAU (DNA:RNA)
RNA: B1 RNA with A27G, C28G, C29A, G31U
DNA 1: CAATCTGAATTCCGGTCTCCC
DNA 2: TGGTGGCTACGACGGGATT
B11: GUAAUAU (DNA:RNA)
RNA: B2 RNA with A25G, C26U, C27A, U30A, A31U
DNA 1: CAATCTGAATTCCGGTCTCCC
DNA 2: TGGTGGCTACGACGGGATT
B12: CGCAUGC (DNA:RNA)
RNA: B2 RNA with A25C, C26G, U30G, A31C
DNA 1: CAATCTGAATTCCGGTCTCCC
DNA 2: TGGTGGCTACGACGGGATT
B13: UUACGUG (DNA:RNA)
RNA: B1 RNA with C25U, A26U, C29G, A30U
DNA 1: CAATCTGAATTCCGGTCTCCC
DNA 2: TGGTGGCTACGACGGGATT
B14: CAACUCC (DNA:RNA)
RNA: B1 RNA with C29U, A30C, G31C
DNA 1: CAATCTGAATTCCGGTCTCCC
DNA 2: TGGTGGCTACGACGGGATT
B15: UUACCCG (DNA:RNA)
RNA: B1 RNA with C25U, A26U, A30C
DNA 1: CAATCTGAATTCCGGTCTCCC
DNA 2: TGGTGGCTACGACGGGATT
B16: UAACAAC (DNA:RNA)
RNA: B1 RNA with C25U, C29A, G31C
DNA 1: CAATCTGAATTCCGGTCTCCC
DNA 2: TGGTGGCTACGACGGGATT
B17: CGAUAGU (DNA:RNA)
RNA: B1 RNA with A26G, C28U, C29A, A30G, G31U
DNA 1: CAATCTGAATTCCGGTCTCCC
DNA 2: TGGTGGCTACGACGGGATT
B18: GUGGCUA (DNA:RNA)
RNA: B2 RNA with A25G, C26U, C27G, A28G, U29C
DNA 1: CAATCTGAATTCCGGTCTCCC
DNA 2: TGGTGGCTACGACGGGATT
B19: GUCUGCC (DNA:RNA)
RNA: B2 RNA with A25G, C26U, A28U, U29G, U30C, A31C
DNA 1: CAATCTGAATTCCGGTCTCCC
DNA 2: TGGTGGCTACGACGGGATT
B20: CACAAGA (DNA:RNA)
RNA: B2 RNA with A25C, C26A, U29A, U30G
DNA 1: CAATCTGAATTCCGGTCTCCC
DNA 2: TGGTGGCTACGACGGGATT
B21: UACUGAC (DNA:RNA)
RNA: B1 RNA with C25U, A27C, C28U, C29G, G31C
DNA 1: CAATCTGAATTCCGGTCTCCC
DNA 2: TGGTGGCTACGACGGGATT
B22: CUUAGCG (DNA:RNA)
RNA: B1 RNA with A26U, A27U, C28A, C29G, A30C
DNA 1: CAATCTGAATTCCGGTCTCCC
DNA 2: TGGTGGCTACGACGGGATT
B23: GCCUGGG (DNA:RNA)
RNA: B2 RNA with A25G, A28U, U29G, U30G, A31G
DNA 1: CAATCTGAATTCCGGTCTCCC
DNA 2: TGGTGGCTACGACGGGATT
B24: AGGCACA (DNA:RNA)
RNA: B2 RNA with C26G, C27G, A28C, U29A, U30C
DNA 1: CAATCTGAATTCCGGTCTCCC
DNA 2: TGGTGGCTACGACGGGATT
B25: UGCGCGU (DNA:RNA)
RNA: B2 RNA with A25U, C26G, A28G, U29C, U30G, A31U
DNA 1: CAATCTGAATTCCGGTCTCCC
DNA 2: TGGTGGCTACGACGGGATT
B26: UAUCGUU (DNA:RNA)
RNA: B1 RNA with C25U, A27U, C29G, A30U, G31U
DNA 1: CAATCTGAATTCCGGTCTCCC
DNA 2: TGGTGGCTACGACGGGATT
B27: CACUAGA (DNA:RNA)
RNA: B2 RNA with A25C, C26A, A28U, U29A, U30G
DNA 1: CAATCTGAATTCCGGTCTCCC
DNA 2: TGGTGGCTACGACGGGATT
B28: ACGGUAG (DNA:RNA)
RNA: B2 RNA with C27G, A28G, U30A, A31G
DNA 1: CAATCTGAATTCCGGTCTCCC
DNA 2: TGGTGGCTACGACGGGATT
B29: GAUAUCG (DNA:RNA)
RNA: B2 RNA with A25G, C26A, C27U, U30C, A31G
DNA 1: CAATCTGAATTCCGGTCTCCC
DNA 2: TGGTGGCTACGACGGGATT
B30: ACGUGUG (DNA:RNA)
RNA: B2 RNA with C27G, A28U, U29G, A31G
DNA 1: CAATCTGAATTCCGGTCTCCC
DNA 2: TGGTGGCTACGACGGGATT
B31: UCGGGUU (DNA:RNA)
RNA: B2 RNA with A25U, C27G, A28G, U29G, A31U
DNA 1: CAATCTGAATTCCGGTCTCCC
DNA 2: TGGTGGCTACGACGGGATT

Numbering of substitutions follows the chain as printed; changes in the protein carry UniProt numbers. Some of the results follow.

In the assay the target is T1, RBFOX1 RRM. Briefly: EMSA; HiTS-Eq, 1 nM pool, 10 min; buffer printed only for the single-RNA assays: 10 mM Tris pH 7.5, 150 mM NaCl, 3.4 mM EDTA, 0.001% NP-40, 30 C. As to conditions: tags: His6 N-terminal (pET28a); label: 5' 32P. In outline: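 A pool of RNA with 7 randomized nucleotides, 5′-radiolabelled and with DNA-annealed flanks, was equilibrated at 1 nM for 10 min in 50 µL with purified RbFox RRM, wild type or mutant, across increasing protein concentrations. Free RNA was separated by 8% native PAGE, excised, reverse-transcribed, barcoded by PCR and sequenced. Relative association constants were obtained from read-count changes of each RNA species versus the control reaction and normalised to the cognate motif.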
Background: In EMSA bound probe runs differently from free probe, usually more slowly.
Regarding B1, the binding signal is 0.00142 KA relative to UGCAUGU. With B2 the figure was 0.000337 KA relative to UGCAUGU; with B3, 0.00298 KA relative to UGCAUGU. With B4 the figure was 0.0106 KA relative to UGCAUGU; with B5, 0.00281 KA relative to UGCAUGU; with B6, 0.00329 KA relative to UGCAUGU. As for B7, the binding signal is 0.00314 KA relative to UGCAUGU. As for B8, the figure is 0.00396 KA relative to UGCAUGU. With B9 the figure was 0.00976 KA relative to UGCAUGU; with B10, 0.0106 KA relative to UGCAUGU; with B11, 0.00279 KA relative to UGCAUGU.

Take B12: the binding signal was 0.895 KA relative to UGCAUGU. As for B13, the figure is 0.0211 KA relative to UGCAUGU; as for B14, 0.00142 KA relative to UGCAUGU. As for B15, the figure is 0.00422 KA relative to UGCAUGU. With B16 the figure was 0.00166 KA relative to UGCAUGU; with B17, 0.0116 KA relative to UGCAUGU. Consider B18, for which the binding signal was 0.014 KA relative to UGCAUGU. With B19 the figure was 0.0216 KA relative to UGCAUGU; with B20, 0.003 KA relative to UGCAUGU. As for B21, the figure is 0.00869 KA relative to UGCAUGU; as for B22, 0.0108 KA relative to UGCAUGU; as for B23, 0.0219 KA relative to UGCAUGU. With B24 the figure was 0.00777 KA relative to UGCAUGU. On to B25, for which the binding signal was 0.0288 KA relative to UGCAUGU. B26: the binding signal was 0.00892 KA relative to UGCAUGU. With B27 the figure was 0.00364 KA relative to UGCAUGU; with B28, 0.0129 KA relative to UGCAUGU. As for B29, the figure is 0.0155 KA relative to UGCAUGU; as for B30, 0.0169 KA relative to UGCAUGU. With B31 the figure was 0.0195 KA relative to UGCAUGU.
